# Test results from PubChem BioAssay AID1460 (National Center for Advancing Translational Sciences (NCATS), 2008).
# Hit rate of the full screen: of about 270,000 compounds, about 5,800 (2.1%) were called active. The shares of active, inactive and inconclusive entries below differ from those in the screen. The call rests on the fitted dose curve; in most records, active means well fitted inhibition curve with a large enough effect; inconclusive means small, poorly fitted or top-dose-only effect; inactive means flat fitted curve, though single readings scatter. Potencies beside an inconclusive call are fits to weak or partial responses and may not hold up.
# Biological target: Microtubule-associated protein tau (Homo sapiens) (UniProt P10636)
# Assay: qHTS for Inhibitors of Tau Fibril Formation, Thioflavin T Binding; further: nearly all actives have a fitted effect of over 55% in size
# Conditions: recombinant tau K18 P301L (four-repeat tau fragment), heparin-induced fibrillization, ThT fluorescence; series mostly up to 57.4 µM
# In short: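 Heparin-induced (20 uM) aggregation of recombinant human K18 P301L tau, 15 uM unlabeled with 0.24 uM labeled, pH 7 acetate buffer, 6 hr at 37 C with compound. Fibrils quantified by 30 uM ThT fluorescence after 1 hr ambient incubation.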
# On the % scale 0 is the no-effect control and ±100 the full control effect; potency means the concentration at half of the fitted maximal effect; tags describe the fitted curve by direction and shape.
# Sequence of UniProt P10636 (P10636 whole entry, looked up): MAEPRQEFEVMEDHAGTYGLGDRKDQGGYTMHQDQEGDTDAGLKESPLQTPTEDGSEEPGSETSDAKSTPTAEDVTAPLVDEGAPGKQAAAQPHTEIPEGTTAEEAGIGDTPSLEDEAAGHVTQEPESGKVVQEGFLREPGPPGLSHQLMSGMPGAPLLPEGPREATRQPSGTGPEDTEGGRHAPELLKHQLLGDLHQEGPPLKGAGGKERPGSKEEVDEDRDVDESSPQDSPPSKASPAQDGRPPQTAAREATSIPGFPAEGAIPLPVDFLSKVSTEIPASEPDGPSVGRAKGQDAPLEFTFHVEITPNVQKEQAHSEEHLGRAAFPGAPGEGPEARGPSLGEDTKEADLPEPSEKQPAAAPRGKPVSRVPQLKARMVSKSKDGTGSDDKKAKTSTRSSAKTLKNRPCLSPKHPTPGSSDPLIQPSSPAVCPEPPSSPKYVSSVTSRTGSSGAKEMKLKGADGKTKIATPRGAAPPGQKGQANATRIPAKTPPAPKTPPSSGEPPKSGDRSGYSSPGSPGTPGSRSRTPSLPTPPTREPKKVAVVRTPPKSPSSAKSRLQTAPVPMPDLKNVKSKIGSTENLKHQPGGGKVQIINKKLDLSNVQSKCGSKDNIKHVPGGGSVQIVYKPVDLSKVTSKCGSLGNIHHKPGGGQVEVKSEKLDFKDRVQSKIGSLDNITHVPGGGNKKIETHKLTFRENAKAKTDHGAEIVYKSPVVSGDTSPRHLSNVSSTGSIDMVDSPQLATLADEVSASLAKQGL
SMILES,Potency,"activity, negative = inhibition"
CCOC(=O)c1[nH]c2ccccc2c1NC(=O)c1cc(OC)cc(OC)c1,"inconclusive: 28.2 µM [inhibitor, partial curve]",
CC(Oc1ccc(Cl)cc1Cl)C(=O)NC1=NN(c2ccccc2)C(=O)C1 (stereo not given),"inconclusive: 3.16 µM [inhibitor, full curve]",
Cc1ccc(C(=O)NNC2=Nc3cccc4cccc2c34)cc1,"inconclusive: 1 µM [inhibitor, full curve]",
O=C(C1Cc2ccccc2CN1C(=O)c1ccccc1)N1CCN(c2ccccc2)CC1 (stereo not given),"inconclusive: 25.1 µM [inhibitor, single point]",
O=C(N/N=C/c1c[nH]c2ccccc12)c1ccncc1,"inconclusive: 15.8 µM [inhibitor, partial curve]",
C/C(CCN1CCCc2nc(C)c(C)cc21)=N\OC[C@@H](O)COCc1ccco1,,inactive: -1.7% [at 11.5 µM]
O=C1CCC/C1=C\c1ccccc1,inactive,
CCN1CCc2nc(NC(=O)CC(c3ccccc3)c3ccccc3)sc2C1,"inconclusive: 31.6 µM [inhibitor, single point]",
Cc1ccc(Cl)cc1NC(=O)c1cc2c(=O)n3cccc(C)c3nc2n1C,inactive,
c1cc2c3c(c1)c1c(n3CCNC2)CCCC1,"inconclusive: 39.8 µM [inhibitor, single point]",
CC(/C=C1\SC(=Nc2cccnc2)NC1=O)=C\c1ccccc1,"inconclusive: 3.16 µM [inhibitor, full curve]",
CCCN(CCC)S(=O)(=O)c1ccc(C(=O)NCc2n[nH]c(=S)n2-c2ccc(Cl)c(Cl)c2)cc1,inactive,
Cc1ccccc1C(=O)Oc1cc(-c2ccc3c(c2)OCO3)cc(=O)c2c(C)oc(C)c12,"inconclusive: 10 µM [inhibitor, partial curve]",
Cc1ccc(S(=O)(=O)c2nc(-c3cccs3)oc2NCCCN(C)C)cc1,inactive,
COc1cc(OC)cc(N2CC(C)(C)C2=O)c1,inactive,
Cc1ccc(N/C=C2\C(=O)C3(C)CCC2C3(C)C)cc1C (stereo not given),"inconclusive: 22.4 µM [inhibitor, single point]",
Cc1cccc(-c2nnc(NC(=O)c3ccc(Cl)cc3)o2)c1,inactive,
CC(/C=C/c1ccco1)=N\NC(=O)c1cc(Cl)ccc1O,"inconclusive: 15.8 µM [inhibitor, partial curve]",
CCN(C(=O)c1sc2cc(OC)ccc2c1Cl)c1ccccc1,"inconclusive: 35.5 µM [inhibitor, single point]",
COc1cc(/C=N/n2c(-c3cc(C)[nH]n3)n[nH]c2=S)cc(OC)c1O,"inconclusive: 20 µM [inhibitor, single point]",
Cc1ccc(NC(=O)/C(C#N)=C/c2ccccc2Cl)cc1C,"inconclusive: 1.41 µM [inhibitor, full curve, poor fit]",
COc1ccccc1OCCCCn1c(C2CC(=O)N(c3ccccc3Cl)C2)nc2ccccc21 (stereo not given),"inconclusive: 3.55 µM [inhibitor, full curve, poor fit]",
Cc1ccc(OCCNC(=O)/C=C/c2ccco2)cc1C,"inconclusive: 7.94 µM [inhibitor, partial curve]",

SMILES,Potency,"activity, negative = inhibition"
Cc1ccc(C2=NC(c3ccc(F)cc3)=Nc3ccc(C)cc3N2)cc1,inactive,
CCOc1ccccc1-c1nn2c(Cc3ccccc3)nnc2s1,"inconclusive: 28.2 µM [inhibitor, partial curve, poor fit]",
COc1ccc(Cl)cc1NC(=O)CSc1nc2c([nH]c3ccccc32)c(=O)n1-c1ccccc1,inactive,
O=C(NC1CCCC1)c1cnn(-c2ccc(F)cc2F)c1C1CCNCC1,inactive,
C#Cc1ccc([C@H]2C=C(C(=O)N3CCN(Cc4ccc5c(c4)OCO5)CC3)O[C@@H](OCc3ccc(CO)cc3)C2)cc1,"inconclusive: 22.4 µM [inhibitor, single point]",
CCOC(=O)c1cc(=O)n2nc(-c3ccc(C)cc3)nc2s1,"inconclusive: 11.2 µM [inhibitor, partial curve]",
Cc1c(NC(=O)CSc2ccc(Cl)cc2)cccc1-c1nc2ncccc2o1,"inconclusive: 35.5 µM [inhibitor, single point]",
Cc1nc2ncccn2c1-c1csc(Nc2ccc(N(C)C)cc2)n1,active: 12.6 µM,
C/C(=N/OC(=O)c1ccc(C(F)(F)F)cc1)c1oc(C)nc1C,"inconclusive: 2.51 µM [inhibitor, full curve]",
C1=CC2c3ccccc3NC(c3ccncc3)C2C1 (stereo not given),active: 22.4 µM,
O=C(Nc1ccc(N2CCOCC2)cc1Cl)C1CCN(C(=O)OCc2ccccc2)CC1,"inconclusive: 17.8 µM [inhibitor, partial curve]",
Cc1cc2ccccn2c1C(=O)c1ccc(N/N=C/c2ccc(C(=O)O)cc2)c([N+](=O)[O-])c1,active: 3.16 µM,
CC(C)=CCC1=C(O)c2ccccc2C(=O)C1=O,active: 28.2 µM,
CC(=O)NCCNc1nc2c(-c3cccc(C)c3)nnn2c2ccc(Cl)cc12,inactive,
O=C(NN=C1CCCCCC1)C(=O)Nc1cccc(Br)c1,"inconclusive: 20 µM [inhibitor, partial curve]",
CSc1ccc(CNC(=O)Cc2csc3ccccc23)cc1,inactive,
COc1ccc(OC)c(NC(=O)C(=S)NC2CCCCC2)c1,"inconclusive: 25.1 µM [inhibitor, partial curve]",
Cc1noc(C)c1CSCC(=O)N1CCN(c2ccc([N+](=O)[O-])cc2)CC1,"inconclusive: 1.12 µM [inhibitor, partial curve]",
Cc1nc(C(=O)Nc2ccc(Cl)cc2)nn1-c1ccc([N+](=O)[O-])cc1,"inconclusive: 12.6 µM [inhibitor, partial curve, poor fit]",
CC(=O)Nc1sc(NC(=O)c2ccc(C)cc2)nc1-c1cccs1,"inconclusive: 20 µM [inhibitor, partial curve]",
O=C(NC1CCCCC1)c1nn2c(C(F)(F)F)cc(-c3ccco3)nc2c1Br,inactive,
Oc1ccc(Br)cc1/C=N/n1cnc2ccccc21,"inconclusive: 7.08 µM [inhibitor, partial curve]",
